Assay results taken from US4716147A, “Synthetic airial peptides” (Monsanto Company, priority 1986, dated 1987).
Part of at least one peptide drawing is inferred or uncertain, most often the ends. Positions of bridges follow the written chain, without caps; N, C: chain ends. Non-standard residues stand in square brackets, D forms with d. Residues, ends and D or L forms follow the SMILES beside them.

Columns and labels:
[1] = test system: spiral strips of rabbit thoracic aorta; experiment: Rabbit aorta relaxation assay (RA); format: cell-based; conditions: relative to atriopeptin III = 1.0; tone induced by 4.5x10^-8 M norepinephrine
[2] = test system: atrial peptide receptor on rabbit lung membranes; experiment: Receptor binding assay (rabbit lung receptor assay, RRA); conditions: displacement of 125I-labeled AP-III; relative to AP-III = 1.0
[3] = test system: pentobarbital anesthetized beagle dogs; experiment: Canine renal function test (natriuresis and renal blood flow); format: in vivo, dog; conditions: intrarenal artery injection, 1, 3, 10 and 30 μg; relative to atriopeptin III = 1.0

Structure (SMILES) | RA = Rabbit aorta relaxation assay, relative biological activity [1] | RRA = Rabbit lung receptor assay, relative binding affinity (IC50 for AP-III/IC50 for the peptide) [2] | ΔRBF = Change in renal blood flow, relative biological activity [3] | ΔUNa V = Change in urinary sodium excretion, relative biological activity [3]
CC[C@H](C)[C@@H]1NC(=O)[C@H](CCCNC(=N)N)NC(=O)[C@H](CC(=O)O)NC(=O)[C@H]([C@@H](C)CC)NC(=O)[C@H](CCCNC(=N)N)NC(=O)CNC(=O)CNC(=O)[C@H](Cc2ccccc2)NC(=O)[C@@H](NC(=O)[C@H](CCCNC(=N)N)NC(=O)[C@H](CCCNC(=N)N)NC(=O)[C@H](CC(C)C)NC(=O)[C@@H](N)CO)CSSC[C@@H](C(=O)N[C@@H](CC(N)=O)C(=O)N[C@@H](CO)C(=O)N[C@@H](Cc2ccccc2)C(=O)N[C@@H](CCCNC(=N)N)C(N)=O)NC(=O)CNC(=O)[C@H](CC(C)C)NC(=O)CNC(=O)[C@H](CO)NC(=O)[C@H](CCC(N)=O)NC(=O)[C@H](C)NC(=O)CNC1=O [S-L-[R^1,R^2]-AP-II-NH2] (H-SLRRCFGGRIDRIGAQSGLGCNSFR-NH2; disulfide 5-21) | 1.4 | 4.7 | 2 | 20
CC[C@H](C)[C@@H]1NC(=O)[C@H](CCCNC(=N)N)NC(=O)[C@H](CC(=O)O)NC(=O)[C@H]([C@@H](C)CC)NC(=O)[C@H](CCCNC(=N)N)NC(=O)CNC(=O)CNC(=O)[C@H](Cc2ccccc2)NC(=O)[C@@H](NC(=O)[C@H](N)CCCNC(=N)N)CSSC[C@@H](C(=O)N[C@@H](CC(N)=O)C(=O)N[C@@H](CO)C(=O)N[C@@H](Cc2ccccc2)C(=O)N[C@@H](CCCNC(=N)N)C(N)=O)NC(=O)CNC(=O)[C@H](CC(C)C)NC(=O)CNC(=O)[C@H](CO)NC(=O)[C@H](CCC(N)=O)NC(=O)[C@H](C)NC(=O)CNC1=O [[--,D-R^2]-AP-II-NH2] (H-[dR]CFGGRIDRIGAQSGLGCNSFR-NH2; disulfide 2-18) | 2.9 | 5.5 | 1-3 | 1-2
CC[C@H](C)[C@@H]1NC(=O)[C@H](CCCNC(=N)N)NC(=O)[C@H](CC(=O)O)NC(=O)[C@H]([C@@H](C)CC)NC(=O)[C@H](CCCNC(=N)N)NC(=O)CNC(=O)CNC(=O)[C@H](Cc2ccccc2)NC(=O)[C@@H](NC(=O)[C@@H](N)CCCNC(=N)N)CSSC[C@@H](C(=O)N[C@@H](CC(N)=O)C(=O)N[C@@H](CO)C(N)=O)NC(=O)CNC(=O)[C@H](CC(C)C)NC(=O)CNC(=O)[C@H](CO)NC(=O)[C@H](CCC(N)=O)NC(=O)[C@H](C)NC(=O)CNC1=O [[--,R^2]-AP-1-NH2] (H-RCFGGRIDRIGAQSGLGCNS-NH2; disulfide 2-18) | 0.023 | 0.6 | 0.2-0.4 | 0.3
CC[C@H](C)[C@@H]1NC(=O)[C@H](CCCNC(=N)N)NC(=O)[C@H](CC(=O)O)NC(=O)[C@H]([C@@H](C)CC)NC(=O)[C@H](CCCNC(=N)N)NC(=O)CNC(=O)CNC(=O)[C@H](Cc2ccccc2)NC(=O)[C@@H](NC(=O)[C@@H](N)CCCNC(=N)N)CSSC[C@@H](C(=O)N[C@@H](CC(N)=O)C(=O)N[C@@H](CO)C(=O)N[C@@H](Cc2ccccc2)C(=O)N[C@@H](CCCNC(=N)N)C(N)=O)NC(=O)CNC(=O)[C@H](CC(C)C)NC(=O)CNC(=O)[C@H](CO)NC(=O)[C@H](CCC(N)=O)NC(=O)[C@H](C)NC(=O)CNC1=O [[--,R^2]-AP-II-NH2] (H-RCFGGRIDRIGAQSGLGCNSFR-NH2; disulfide 2-18) | 3.7 | 4.0 | 1-4 | 1-4
CC[C@H](C)[C@@H]1NC(=O)[C@H](CCCNC(=N)N)NC(=O)[C@H](CC(=O)O)NC(=O)[C@H]([C@@H](C)CC)NC(=O)[C@H](CCCNC(=N)N)NC(=O)CNC(=O)CNC(=O)[C@H](Cc2ccccc2)NC(=O)[C@@H](NC(=O)[C@@H](N)CCCNC(=N)N)CSSC[C@@H](C(=O)N[C@@H](CC(N)=O)C(=O)N[C@@H](CO)C(=O)N[C@@H](Cc2ccccc2)C(=O)N[C@@H](CCCNC(=N)N)C(=O)N[C@@H](Cc2ccc(O)cc2)C(=O)O)NC(=O)CNC(=O)[C@H](CC(C)C)NC(=O)CNC(=O)[C@H](CO)NC(=O)[C@H](CCC(N)=O)NC(=O)[C@H](C)NC(=O)CNC1=O [[--,R^2]-AP-III] (H-RCFGGRIDRIGAQSGLGCNSFRY-OH; disulfide 2-18) | 3.0 | 1.8 | 1-2 | 1-2
CC[C@H](C)[C@@H]1NC(=O)[C@H](CCCNC(=N)N)NC(=O)[C@H](CC(=O)O)NC(=O)[C@H]([C@@H](C)CC)NC(=O)[C@H](CCCNC(=N)N)NC(=O)CNC(=O)CNC(=O)[C@H](Cc2ccccc2)NC(=O)[C@@H](NC(=O)[C@@H](CCCNC(=N)N)NC(=O)[C@H](N)CCCNC(=N)N)CSSC[C@@H](C(=O)N[C@@H](CC(N)=O)C(=O)N[C@@H](CO)C(=O)N[C@@H](Cc2ccccc2)C(=O)N[C@@H](CCCNC(=N)N)C(N)=O)NC(=O)CNC(=O)[C@H](CC(C)C)NC(=O)CNC(=O)[C@H](CO)NC(=O)[C@H](CCC(N)=O)NC(=O)[C@H](C)NC(=O)CNC1=O [[D-R^1,D-R^2]-AP-II-NH2] (H-[dR][dR]CFGGRIDRIGAQSGLGCNSFR-NH2; disulfide 3-19) | 2.3 | 4.6 | 13 | 20
CC[C@H](C)[C@@H]1NC(=O)[C@H](CCCNC(=N)N)NC(=O)[C@H](CC(=O)O)NC(=O)[C@H]([C@@H](C)CC)NC(=O)[C@H](CCCNC(=N)N)NC(=O)CNC(=O)CNC(=O)[C@H](Cc2ccccc2)NC(=O)[C@@H](NC(=O)[C@H](CCCCN)NC(=O)[C@@H](N)CCCCN)CSSC[C@@H](C(=O)N[C@@H](CC(N)=O)C(=O)N[C@@H](CO)C(=O)N[C@@H](Cc2ccccc2)C(=O)N[C@@H](CCCNC(=N)N)C(N)=O)NC(=O)CNC(=O)[C@H](CC(C)C)NC(=O)CNC(=O)[C@H](CO)NC(=O)[C@H](CCC(N)=O)NC(=O)[C@H](C)NC(=O)CNC1=O [[K^1,K^2]-AP-II-NH2] (H-KKCFGGRIDRIGAQSGLGCNSFR-NH2; disulfide 3-19) | .07 | 2.2 | 0.25-0.5 | 0.5-1.0
CC[C@H](C)[C@@H]1NC(=O)[C@H](CCCNC(=N)N)NC(=O)[C@H](CC(=O)O)NC(=O)[C@H]([C@@H](C)CC)NC(=O)[C@H](CCCNC(=N)N)NC(=O)CNC(=O)CNC(=O)[C@H](Cc2ccccc2)NC(=O)[C@@H](NC(=O)[C@H](CCCNC(=N)N)NC(=O)[C@@H](N)CCCNC(=N)N)CSSC[C@@H](C(=O)N[C@@H](CC(N)=O)C(=O)N[C@@H](CO)C(N)=O)NC(=O)CNC(=O)[C@H](CC(C)C)NC(=O)CNC(=O)[C@H](CO)NC(=O)[C@H](CCC(N)=O)NC(=O)[C@H](C)NC(=O)CNC1=O [[R^1,R^2]-AP-I-NH2] (H-RRCFGGRIDRIGAQSGLGCNS-NH2; disulfide 3-19) | 0.031 | 1.4 | 0.2-0.5 | 0.1
CC[C@H](C)[C@@H]1NC(=O)[C@H](CCCNC(=N)N)NC(=O)[C@H](CC(=O)O)NC(=O)[C@H]([C@@H](C)CC)NC(=O)[C@H](CCCNC(=N)N)NC(=O)CNC(=O)CNC(=O)[C@H](Cc2ccccc2)NC(=O)[C@@H](NC(=O)[C@H](CCCNC(=N)N)NC(=O)[C@@H](N)CCCNC(=N)N)CSSC[C@@H](C(=O)N[C@@H](CC(N)=O)C(=O)N[C@@H](CO)C(=O)N[C@@H](Cc2ccccc2)C(=O)N[C@@H](CCCNC(=N)N)C(N)=O)NC(=O)CNC(=O)[C@H](CC(C)C)NC(=O)CNC(=O)[C@H](CO)NC(=O)[C@H](CCC(N)=O)NC(=O)[C@H](C)NC(=O)CNC1=O [[R^1,R^2]-AP-II-NH2, [Arg^1, arg^2]-AP-II-NH2] (H-RRCFGGRIDRIGAQSGLGCNSFR-NH2; disulfide 3-19) | 4.5 | 4.4 | 1.5-3 | 10
CCNC(=O)[C@H](CCCNC(=N)N)NC(=O)[C@H](Cc1ccccc1)NC(=O)[C@H](CO)NC(=O)[C@H](CC(N)=O)NC(=O)[C@@H]1CSSC[C@H](NC(=O)[C@H](CCCNC(=N)N)NC(=O)[C@@H](N)CCCNC(=N)N)C(=O)N[C@@H](Cc2ccccc2)C(=O)NCC(=O)NCC(=O)N[C@@H](CCCNC(=N)N)C(=O)N[C@@H]([C@@H](C)CC)C(=O)N[C@@H](CC(=O)O)C(=O)N[C@@H](CCCNC(=N)N)C(=O)N[C@@H]([C@@H](C)CC)C(=O)NCC(=O)N[C@@H](C)C(=O)N[C@@H](CCC(N)=O)C(=O)N[C@@H](CO)C(=O)NCC(=O)N[C@@H](CC(C)C)C(=O)NCC(=O)N1 [[R^1,R^2]-AP-II-NHEt] (H-RRCFGGRIDRIGAQSGLGCNSFR-NHEt; disulfide 3-19) | 3.1 | 2.3 | 40 | 10
